# Measured values: ChEMBL document CHEMBL5303300, “EUbOPEN Chemogenomics Library - Multiplex” (2023)
# Certain results were filed several times, with different values. This is not the full list of results. There may be further records. Results that share an entry repeat one measurement across runs, samples, wells, individuals or studies.
# Test system: U2OS
# Assay: Multiplex assay against U2OS
# Assay type: toxicity, cell-based
# Conditions: human, number of replicates 2
# In short: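 Imaging took place on a CQ1 microscope at 37°C and 5% CO2 once compound had been added to live cells stained at seeding with Hoechst33342, BioTracker Green Microtubule Cytoskeleton Dye, MitoTracker Red and Annexin V Alexa Fluor 680. CellPathfinder machine-learning gating classed cells as Hoechst high-intensity objects or normal cells, classed normal cells as having healthy, pyknosed or fragmented nuclei, and classed pyknosed cells as mitotic or apoptotic. Tubulin, mitochondrial-mass and membrane-permeability phenotypes are per cents of the healthy-nucleus cells.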
# [1] = 12 h, 1 µM, compound concentration 1 uM
# [2] = 12 h, 10 µM, compound concentration 10 uM
# [3] = 24 h, 1 µM, compound concentration 1 uM
# [4] = 24 h, 10 µM, compound concentration 10 uM
# [5] = 48 h, 1 µM, compound concentration 1 uM
# [6] = 48 h, 10 µM, compound concentration 10 uM
structure (smiles),measurement,setting,value
OC(c1ccc(-c2ccc(CN3CCN(Cc4ccncc4)CC3)cc2)c(F)c1)(C(F)(F)F)C(F)(F)F,Population Apoptotic (%),[1],0% and 71%
same,Population Fragmented Nuclei (%),[1],71% and 4%
same,Population Healthy Nuclei (%),[1],14% and 86%
same,Population Membrane Permeable-Phenotype (%),[1],100% and 2%
same,Population Mitotic Cells (%),[1],100% and 28%
same,Total Cell Count,[1],7 and 223
same,Population Fragmented Nuclei (%),[2],5% and 32%
same,Population Membrane Permeable-Phenotype (%),[2],1% and 21%
same,Population Tubulin-Different-Phenotype (%),[2],53% and 14%
same,Total Cell Count,[2],160 and 28
same,Population Apoptotic (%),[3],0% and 57%
same,Population Fragmented Nuclei (%),[3],80% and 4%
same,Population Healthy Nuclei (%),[3],0% and 86%
same,Population Tubulin-Different-Phenotype (%),[3],0% and 87%
same,Total Cell Count,[3],5 and 302
same,Population Fragmented Nuclei (%),[4],5% and 27%
same,Population Membrane Permeable-Phenotype (%),[4],2% and 20%
same,Total Cell Count,[4],219 and 37
same,Population Apoptotic (%),[5],0% and 72%
same,Population Fragmented Nuclei (%),[5],100% and 3%
same,Population Healthy Nuclei (%),[5],0% and 90%
same,Population Mitotic Cells (%),[5],0% and 27%
same,Population Tubulin-Different-Phenotype (%),[5],0% and 92%
same,Total Cell Count,[5],7 and 603
same,Population Fragmented Nuclei (%),[6],4% and 19%
same,Population Tubulin-Different-Phenotype (%),[6],67% and 20%
same,Total Cell Count,[6],371 and 52
COc1cc(Nc2cnc(C#N)c(O[C@H](C)CN(C)C)n2)ncc1-c1cnn(C)c1,Population Fragmented Nuclei (%),[1],26% and 4%
same,Population Membrane Permeable-Phenotype (%),[1],12% and 1%
same,Population Mitotic Cells (%),[1],0% and 40%
same,Total Cell Count,[1],38 and 227
same,Population Fragmented Nuclei (%),[2],39% and 9%
same,Population Membrane Permeable-Phenotype (%),[2],31% and 5%
same,Population Mitotic Cells (%),[2],11% and 43%
same,Total Cell Count,[2],41 and 188
same,Population Fragmented Nuclei (%),[3],21% and 5%
same,Total Cell Count,[3],55 and 290
same,Population Membrane Permeable-Phenotype (%),[4],20% and 3%
same,Total Cell Count,[4],29 and 193
same,Population Fragmented Nuclei (%),[5],15% and 3%
same,Total Cell Count,[5],63 and 528
same,Total Cell Count,[6],30 and 211
COc1cc(Br)c(S(=O)(=O)Nc2ccc(C(F)(F)F)c(O[C@@H]3CCN(C)C3)c2)cc1OC,Population Apoptotic (%),[1],0% and 53%
same,Total Cell Count,[1],30 and 202
same,Population Fragmented Nuclei (%),[2],16% and 3%
same,Total Cell Count,[2],31 and 179
same,Total Cell Count,[3],42 and 263
same,Population Apoptotic (%),[4],16% and 51%
same,Total Cell Count,[4],36 and 245
same,Population Fragmented Nuclei (%),[5],15% and 3%
same,Total Cell Count,[5],89 and 524
same,Total Cell Count,[6],64 and 521
CN(C)[C@H]1CC[C@H](Nc2ncc3ncnc(Nc4ccc(F)c(Cl)c4)c3n2)CC1,Population Apoptotic (%),[1],0% and 35%
same,Total Cell Count,[1],49 and 283
same,Population Fragmented Nuclei (%),[3],46% and 11%
same,Total Cell Count,[3],66 and 349
same,Total Cell Count,[4],172 and 597
same,Population Fragmented Nuclei (%),[5],54% and 14%
same,Total Cell Count,[5],71 and 625
same,Total Cell Count,[6],291 and 956
Cc1ccc(C(=O)Nc2cc(N3CCN(C)CC3)cc(C(F)(F)F)c2)cc1-n1cc(-c2cnn(C)c2C)nn1.Cl,Population Fragmented Nuclei (%),[1],21% and 2%
same,Population Mitochondria Different-Phenotype (%),[1],6% and 25%
same,Total Cell Count,[1],47 and 157
same,Population Fragmented Nuclei (%),[2],6% and 29%
same,Total Cell Count,[2],175 and 31
same,Population Fragmented Nuclei (%),[3],17% and 2%
same,Population Mitochondria Different-Phenotype (%),[3],2% and 30%
same,Total Cell Count,[4],29 and 209
same,Population Mitochondria Different-Phenotype (%),[5],5% and 23%
same,Total Cell Count,[5],105 and 324
same,Population Fragmented Nuclei (%),[6],10% and 35%
same,Total Cell Count,[6],204 and 34
COCCN1CCN(CCn2ccc(Nc3ncc4c(n3)-c3c(nn(C)c3-c3ccccc3)C[C@H]4C)n2)CC1,Population Fragmented Nuclei (%),[1],4% and 19%
same,Total Cell Count,[1],196 and 51
same,Total Cell Count,[2],49 and 288
same,Total Cell Count,[3],255 and 70
same,Total Cell Count,[4],63 and 359
same,Total Cell Count,[5],80 and 504
same,Total Cell Count,[6],55 and 473
